# Measured values from US20250195677A1 (CEPHALON, published 2025).
# B1: A2-hIgG4-df-hIL-2 (D20A/R38E) (other)
# heavy: DVQLVESGGGLVQPGGSLRLSCAASGFTFDISAMSWVRQAPGKGLEWVSTISGSAYSTYYADSVKGRFTISRDNSKSTLYLQMNSLRAEDTAVYYCAREIFSDYWGLGTLVTVSSASTKGPSVFPLAPCSRSTSESTAALGCLVKDYFPEPVTVSWNSGALTSGVHTFPAVLQSSGLYSLSSVVTVPSSSLGTKTYTCNVDHKPSNTKVDKRV[sequence of about 350 residues with a human IgG4 Fc omitted]
# light: QSVLTQPPSASGTPGQRVTISCSGSTSNIGRESVYWYQQLPGTAPKLLIYSNVQRPSGAPNRFSGSKSGTSASLAISGLQSEDEADYYCGTWDDSLNGWVFGGGTKLTVLGQPKAAPSVTLFPPSSEELQANKATLVCLISDFYPGAVTVAWKADSSPVKAGVETTTPSKQSNNKYAASSYLSLTPEQWKSHRSYSCQVTHEGSTVEKTVAPTECS
# Biological target: T1, human PD-1 (amino acids 1-185) stably expressed on Jurkat cells (human, UniProt Q15116 in part)
# T1 construct: extracellular domain and a portion of the transmembrane domain, on cells; also called hPD-1; Jurkat+hPD-1 cell line
# T1 sequence (Q15116 21-185 limits assumed, form in doubt): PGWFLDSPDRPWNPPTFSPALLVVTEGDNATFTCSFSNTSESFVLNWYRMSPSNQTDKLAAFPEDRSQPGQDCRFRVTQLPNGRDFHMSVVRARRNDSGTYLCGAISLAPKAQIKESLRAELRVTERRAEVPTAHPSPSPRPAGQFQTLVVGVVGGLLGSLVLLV
# Experiment: flow cytometry, Jurkat+hPD-1 cells, APC anti-human IgG Fc, gMFI; no competitor
binder,measurement,value
B1,EC50 (read off the curve),~5 nM
